Self-cleavage data for 20 variants are collected here from the RNAGym collection of RNA variant scans (doi:10.7554/elife.90254).

Read counts are not given, so values of variants with three or more changes are uncertain.

Sequences and labels used below:
B1: LINE1-full (parent)
chain: UACGUAGGUGGUUUUCCCCUGAUAGUGCUAAGGGGGCCUGGAAGUUUGGACUGGGCAGAGCUCAACACAGCGUGGCAAAGUGGCUGUGGCUAGACUGCCUCUCUGGAUUCCUCGUCACUCAGCAGGGCAUCUCUGAGAGAAAUGCC

This series covers variants of B1. Briefly: self-cleavage, relative activity (ratio to wild type); higher = more cleavage; in vitro, sequencing; the parent is a self-cleaving ribozyme.
For UACGUGGGUGGUUUUCCCCUGAUAGUGCUAAGGGGGCCUGGAAGUUUGGACUGGGCAGAGCUCAACACAGCGUGGCAAAGUGGCUGUGGCUAGGCUGCCUCUCUGGAUUCCUCGUCACUCUGCAGGGCAUCUCUGAGAGAAAUGCC [A6G A94G A121U], the self-cleavage worked out at 0.26.
Consider UACGUGGGUGGUUUUCCCCUGAUAGUGCUAAGGGGGCCUGGAAGUUUGGACUGGGCAGAGCUCAACACAGCGUGGCAAUGUGGCUGAGGCUAGACUGCCUCUCCGGAUUCCUCGUCACUCAGCAGGGCAUCUCUGAGAGAAAUGCC [A6G A79U U87A U104C], for which the self-cleavage was found to be 0.55.
On to UACGUGGGUGGUUUUCCCCUGAUAGUGCUAAGGGGGCCUGGAAGUUUGGACUGGGCAGAGCUCAACACAGCGUGGCUAAGUGGCUGUGGCUAGACCGCCUCUCUGGAUUCCUCGUCACUCCGCAGGGCAUCUCUGAGAGAAAUGCC [A6G A77U U96C A121C], for which the self-cleavage stood at 0.72.
With UACGUGGGUGGUUUUCCCCUGAUAGUGCUAAGGGGGCCUGGAAGUUUGGACUGGGCAGAGCUCGACACAGCGUGGCAAAGUGGCUGUGGCUAGGCUGCCUCUCUGGAUUCCUCGUCACUCAGCAGGGCAUCUCUGAGAGAAAUGCC [A6G A64G A94G], the self-cleavage was 0.61.
Take UACGUGGGUGGUUUUCCCCUGAUAGUGCUAAGGGGGCCUGGAAGUUUGGACUGGGCAGAGCUCUAUACAGCGUGGCAAAGGGGCUGUGGCUAGACUGCCUCUCUGGAUUCCUCGUCACUCAGCAGGGCAUCUCUGAGAGAGAUGCC [A6G A64U C66U U81G A141G]: the self-cleavage is 0.05.
With UACGUGGGUGGUUUUCCCCUGAUAGUGCUAAGGGGGCCUGGAAGUUUGGACUGGGCAGAGCUCUACACAGCGUGGCAAAGUGGCUGUGGCUAGACUGCCUCCCUGGAUUCCUCGUCACUCAGCAGGGCAUCUCUGAGAGAAAUGCC [A6G A64U U102C], the self-cleavage turned out to be 0.31.
Regarding UACGUGGGUGGUUUUCCCCUGAUAGUGCUAAGGGGGCCUGGAAGUUUGGACUGGGCAGAGCUCUACACAGCGUGGCAAAGUGGCUGUGGCUUGACUGCCUCCCUGGAUACCUCGUCACUCAGCAGGGCAUCUCCGAGAGAAAUGCC [A6G A64U A92U U102C U109A U134C], the self-cleavage is 0.
To UACGUGGGUGGUUUUCCCCUGAUAGUGCUAAGGGGGCCUGGAAGUUUGGACUGGGCAGAGCUCAACGCAGCGUGGCUAAGUGGCUGUGGCUAGACUGCCUCUCUGGAUUCCUCGUCACUCAGCAGGGCAUCUCUGAGAGAAAUGCC [A6G A67G A77U] belongs 0.31; to UACGUGGGUGGUUUUCCCCUGAUAGUGCUAAGGGGGCCUGGAAGUUUGGACUGGGCAGAGCUCAACACAGCGUGGCAAAGUGGCUGUGGCUAGGCUGCCUCACUGGAUUCCUCGUCACUCAGCAGGGCAUCUCUGAGAGAAAUGCC [A6G A94G U102A], 0.35.
On to UACGUGGGUGGUUUUCCCCUGAUAGUGCUAAGGGGGCCUGGAAGUUUGGACUGGGCAGAGCUCAACGCAGCGUGGCAAAGUGGCAGUGGCUAGACUGCCUCUCUGGAUUCCUCGUCACUCAGCAGGGCAUCUCUGAGAGAAAUGCC [A6G A67G U85A], for which the self-cleavage is 0.12.
UACGUGGGUGGUUUUCCCCUGAUAGUGCUAAGGGGGCCUGGAAGUUUGGACUGGGCAGAGCUCAACACAGCGUGGCGAAGUGGCUGUGGCUAGACUGCCUCUCAGGUUUCCUCGUCACUCAGCUGGGCAUCUCUGAGAGAAAUGCC [A6G A77G U104A A107U A124U]: the self-cleavage stood at 1.6.
Regarding UACGUGGGUGGUUUUCCCCUGAUAGUGCUAAGGGGGCCUGGAAGUUUGGACUGGGCAGAGCUCAACACAGCGUGGCGAAGUGGCUGUGGCUAGACUGCCUCUCUGGAUUCCUUGUCACUCAGCAGGGCAUCUCUGAGAGAAAUGCC [A6G A77G C113U], the self-cleavage turned out to be 0.7.
Take UACGUGGGUGGUUUUCCCCUGAUAGUGAUAAGGGGGCCUGGAAGUUUGGACUGGGCAGAGCUCAACACAGCGUGGCAAAGUGGCUGUGGCUAGACUGCCUCUCUGGAUCCCUCGUCACUCAGCAGGGCAUCUCAGAGAGAAAUGCC [A6G C28A U109C U134A]: the self-cleavage is 0.
Regarding UACGUGGGUGGUUUUCCCCUGAUAGUGCUAAGGGGGCCUGGAAGUUUGGACUGGGCAGAGCUCAGCACAGCGUGGCAAAGUGGCUGUGGGUAGACUGCCUCUCUGGAUUCCUCGCCACUCAGCAGGGCAUCUCUGAGGGAAAUGCC [A6G A65G C90G U115C A138G], the self-cleavage was 0.
For the variant UACGUGGGUGGUUUUCCCUUGAUAGUGCUAAGGGGGCCUGGAAGUUUGGACUGGGCAGAGCUCAACACAGCGUGGCAAAGUGACUGUGGCUAGACUGCCUCUCUGGAUUCCUCGUCACUCAGCAGGGCAUCUCUGAGAGAAAUGCC [A6G C19U G83A], the self-cleavage was 0.11.
In the case of UACGUGGGUGGUUUUCCCCUGAUAGUGCUAAGGGGGCCUGGAAGUUUGGACUGGGCAGAGCUCAACACAGCGUGGCAAAGUGGCUGUGGCUAGACUGCCUCUCUGGAUUCCUCGUCACUCAGCCGGGCACCUCUGAGAGAAAUGCC [A6G A124C U130C], the self-cleavage worked out at 1.67.
In the case of UACGUGGGUGGUUUUCCCCUGAUAGUGCUAAGGGGGCCUGGAAGUUUGGACUGGGCAGAGCUCAACACAGCGUGGCAAAGUGGCUGUGGCUAGACUGCCUCUCUGGAUUCCUCGUCUCUCAGCAGGGCAUCACUGAGAGAAAUGCC [A6G A117U U132A] it was 0.48; in that of UACGUGGGUGGUUUUCCCCUGAUAGUGCUAAGGGGGCCUGGAAGUUUGGACUGGGCAGAGCUCAACACUGCGUGGCAGAGUGGCUGUGGCUAGACUGCCUCUCUGGAUUCCUCGUCACUCUGCAGGGCAUCUCUGAGAGAAAUGCC [A6G A69U A78G A121U], 0.24.
Turning to UACGUGGGUGGUUUUCCCCUGAUAGUGCUAAGGGGGCCUGGAAGUUUGGACUGGGCAGAGCUCAACACAGCGUGGCAAAGUGGCUGUGGCUAGACUGCCUCUCUGGAUUCCUCGUCACUCAGCAGGGCAUCUCUGUGUGAAAUGCC [A6G A136U A138U], the self-cleavage was 1.48.
Regarding UACGUGGGUGGUUUUCCCCUGAUAGUGCUAAGGGGGCCUGGAAGUUUGGACUGGGCAGAGCUCAACACAGCGUGGCAAAGUGGCUGUGGCUAGACUGCCUCUCUGGAUUCCUCGUCACUCAGCAGGGCAUCUCUGAGAGAAGCGCC [A6G A142G U143C], the self-cleavage was 1.02.
